The campaign covered roughly 310,000 compounds. About 14,000 (4.5%) showed an effect of 50% or more. The effect is printed as a negative number. The list shows a part of the results.
Target: human ether-à-go-go-related gene (hERG) potassium channel (human, UniProt Q12809)
Assay: primary screen, population patch clamp on CHO cells stably expressing hERG
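Also: peak tail current of the secondary pulse compared with the same well before compound.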

Chain of human ether-à-go-go-related gene (hERG) potassium channel (Q12809 whole entry, looked up): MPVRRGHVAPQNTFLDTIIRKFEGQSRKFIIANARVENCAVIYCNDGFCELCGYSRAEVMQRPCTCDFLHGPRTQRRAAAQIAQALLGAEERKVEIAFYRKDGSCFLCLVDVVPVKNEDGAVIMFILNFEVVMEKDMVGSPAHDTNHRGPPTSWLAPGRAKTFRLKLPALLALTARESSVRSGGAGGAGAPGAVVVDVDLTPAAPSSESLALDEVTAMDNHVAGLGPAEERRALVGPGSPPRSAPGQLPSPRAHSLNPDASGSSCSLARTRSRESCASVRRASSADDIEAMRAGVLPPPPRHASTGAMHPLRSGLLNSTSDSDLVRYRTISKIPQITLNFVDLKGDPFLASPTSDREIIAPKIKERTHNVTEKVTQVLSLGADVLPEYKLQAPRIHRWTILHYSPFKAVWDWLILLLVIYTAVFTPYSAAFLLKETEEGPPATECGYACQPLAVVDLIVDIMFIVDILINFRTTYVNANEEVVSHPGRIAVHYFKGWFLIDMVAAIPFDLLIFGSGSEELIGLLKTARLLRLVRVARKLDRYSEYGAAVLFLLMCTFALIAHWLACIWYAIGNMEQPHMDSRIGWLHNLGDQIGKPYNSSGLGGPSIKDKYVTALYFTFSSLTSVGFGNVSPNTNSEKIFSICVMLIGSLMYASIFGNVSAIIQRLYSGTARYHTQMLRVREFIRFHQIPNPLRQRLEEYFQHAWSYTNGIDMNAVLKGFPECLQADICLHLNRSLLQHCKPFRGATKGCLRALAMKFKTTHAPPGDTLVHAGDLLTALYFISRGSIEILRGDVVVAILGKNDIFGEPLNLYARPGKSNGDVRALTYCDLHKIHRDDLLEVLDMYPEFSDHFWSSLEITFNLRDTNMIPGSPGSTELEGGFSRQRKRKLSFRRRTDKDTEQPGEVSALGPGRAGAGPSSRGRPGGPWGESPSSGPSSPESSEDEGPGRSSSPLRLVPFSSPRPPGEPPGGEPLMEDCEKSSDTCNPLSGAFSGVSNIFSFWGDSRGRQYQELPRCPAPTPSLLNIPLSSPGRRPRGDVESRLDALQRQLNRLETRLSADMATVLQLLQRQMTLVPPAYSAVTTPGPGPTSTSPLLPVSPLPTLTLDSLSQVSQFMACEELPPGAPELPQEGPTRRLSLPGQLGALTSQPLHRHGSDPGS

Row | Structure (SMILES) | hERG current change (%, negative = inhibition) at 10uM [%]
1 | CCOc1ccc(N(CC(=O)N2CC=C(c3ccccc3)CC2)S(=O)(=O)c2c(C)noc2C)cc1 | -5.17
2 | CCOc1nc(C)ccc1-c1noc(-c2ccco2)n1 | 9.95
3 | CS/C(=C\[N+](=O)[O-])Nc1ccc(OC(F)(F)F)cc1 | -3.41
4 | COc1ccc(C2=NOC(CNC(N)=S)C2)cc1 (stereo not drawn) | 20.8
5 | CC(C)(C)c1nnc(NC(=O)COc2ccc3c(c2)OCO3)s1 | 7.39
6 | CC1(C)C=C2[C@H]3CC[C@@H]4[C@@]5(C)CCC(=O)C(C)(C)[C@@H]5CC[C@@]4(C)[C@]3(C)CC[C@@]2(C(=O)O)CC1 | -1.05
7 | O=C(Nc1ccnn1C1CCN(CCCc2ccccc2)CC1)c1ccccc1 | -80.8
8 | CC1CCC(=C(C#N)c2nc(-c3cc4ccccc4oc3=O)cs2)CC1 (stereo not drawn) | 7.86
9 | COc1ccc(-c2cc(C)nc3nc(N)nn23)cc1 | -0.694
10 | COc1ccc(CCC(=O)Nc2nnc(C(C)(C)C)s2)cc1 | 22.5
11 | O=C(Nc1ccc(S(=O)(=O)N2CCCCC2c2cccnc2)cc1)c1c(F)cccc1F (stereo not drawn) | -4.98
12 | COC(=O)c1ccc(Oc2coc3cc(OCc4ccc([N+](=O)[O-])cc4)ccc3c2=O)cc1 | 10.4
13 | CC1=C(C(=O)Nc2ccccc2)C(c2ccc3c(c2)OCO3)C2=C(CCCC2=O)N1 (stereo not drawn) | -14.2
14 | Cc1ccc(C)c(S(=O)(=O)Nc2ccc(S(=O)(=O)Nc3ncccn3)cc2)c1 | -2.43
15 | CCOC(=O)c1c(C)[nH]c(C(=O)OCC(=O)N(C)C2CCS(=O)(=O)C2)c1C (stereo not drawn) | 13.9
16 | O=C1COc2ccccc2CN1 | 3.05
17 | CCn1c(C)nc2cc(C(=O)NNS(=O)(=O)c3ccccc3F)ccc21 | 5.94
18 | Cc1ccc(C(=O)O/N=C(\N)Cc2cccs2)c(Cl)c1 | 0.558
19 | CN1CC[n+]2cnc3ccccc3c21.[I-] | 11.5
20 | COc1ccc(C2c3[nH]c4ccccc4c3C[C@H]3C(=O)N(c4ccccc4C(=O)N4CCC(C(=O)O)CC4)C(=O)N23)cc1 (stereo partly drawn) | 9.67
21 | CCN(CC)CC(O)CCCCCCCCC(=O)OC.Cl (stereo not drawn) | 10.3
22 | Cc1c(N=NC2=C(O)CCCC2=O)c(=O)n(-c2ccccc2)n1C | 21.2

Row | Structure (SMILES) | hERG current change (%, negative = inhibition) at 10uM [%]
23 | COC(=O)C1=C(CSc2nncn2C)NC(=O)NC1c1cc(C)ccc1C (stereo not drawn) | -12.1
24 | CCN(CC)C(=O)c1ccc(N(Cc2ccccc2)S(C)(=O)=O)cc1 | -0.944
25 | O=C(c1ccc(Br)o1)N1CCN(CCc2ccncc2)CC1 | -69.8
26 | CSCCNC(=O)c1cccc(Cl)c1 | 14.3
27 | Cc1sc2nc(CN3CCOCC3)nc(Cl)c2c1C | 12.4
28 | Cc1ccc(N2CC(C(=O)Nc3nnc(C(C)C)s3)CC2=O)cc1 (stereo not drawn) | -2.24
29 | O=C(COc1cc(O)c2c(=O)cc(-c3ccccc3)oc2c1)c1ccc(F)cc1 | 13
30 | CCOC(=O)Cc1nnc(NC(=O)C(CC)Sc2nc(C)cc(=O)[nH]2)s1 (stereo not drawn) | 4.2
31 | O=C(Nc1ccc(Cl)cc1)N1CCCN(Cc2ccccc2F)C1 | -26.3
32 | CC(Sc1nnc(-c2ccco2)n1-c1ccccc1)C(=O)NCC1CCCO1 (stereo not drawn) | -20.3
33 | COc1cccc(Cn2nnc(C(=O)NCCc3ccc(Cl)cc3)c2N)c1 | 5.57
34 | Nn1c(SCC(=O)Nc2ccc3c(c2)OCO3)nnc1C1CC1 | 7.91
35 | COc1ccccc1N1CCN(C(=O)C2CCC(Cn3c(=S)[nH]c4ccccc4c3=O)CC2)CC1 (stereo not drawn) | 17.2
36 | N#Cc1c(-c2cccc(Br)c2)cc(-c2ccco2)[nH]c1=O | 20.3
37 | CC(C)(C)C(=O)Nc1ccc(S(=O)(=O)Nc2nccs2)cc1 | 7.16
38 | NC(=O)[C@@H]1CC2(CC(c3cccc(NC(=O)CC(c4ccccc4)c4ccccc4)c3)=NO2)CN1C(=O)COc1ccc(Cl)cc1 (stereo partly drawn) | 12.5
39 | CC(C)(C)c1ccc(-c2cnco2)cc1 | -26.7
40 | O=C(Cc1ccc(F)cc1)OCC(=O)c1cc2ccccc2o1 | -2.43
41 | Cc1cc(Cl)ccc1OC(C)C(=O)NNC(=O)C1CCCCC1C(=O)O (stereo not drawn) | 2.35
42 | Fc1ccc(-c2nc(-c3cnccn3)no2)c(Cl)c1 | 13.7
43 | COc1ccccc1NS(=O)(=O)c1cccc(C(=O)NCc2ccncc2)c1 | 8.75
44 | CC(/C=C/c1ccco1)=N\NC(=O)C(O)c1ccccc1 (stereo not drawn) | 13

Row | Structure (SMILES) | hERG current change (%, negative = inhibition) at 10uM [%]
45 | Cc1nc2cc(F)ccc2n1C1CCN(C(=O)c2ccc(F)cc2F)CC1 | -56.4
46 | CN1CCN(C(=O)c2cc(-c3ccccc3)on2)CC1 | -4.93
47 | CCOC(=O)CN1C(=O)C(=O)N(Cc2c(C)cc(C)cc2C)C1=O | 16.9
48 | Cc1cc(C)c(C)c(OCC(=O)NCc2nc(-c3ccccc3)no2)c1 | 16.4
49 | Cc1ccc(C(=O)O/N=C/c2ccc(N(C)C)cc2)cc1 | 25.6
50 | COc1ccc2nc(NC(=O)Cc3ccc(OC)c(S(=O)(=O)N4CCOCC4)c3)sc2c1 | -22.1
51 | COc1ccc(-c2nnc(SCCOc3cccc(C)c3)n2N)cc1 | 5
52 | CCN(CC)c1ccc(C(=O)c2cnc(/N=C/N(C)C)s2)cc1 | -10.6
53 | Cc1nc2nc(COc3ccccc3)[nH]n2c(=O)c1Cc1ccccc1 | 0.308
54 | CCOc1ccccc1N1CC(C(=O)Nc2ccccc2N2CCOCC2)CC1=O (stereo not drawn) | 12.5
55 | O=C(CSc1ncnc2sc(-c3ccccc3)cc12)NC1CCS(=O)(=O)C1 (stereo not drawn) | -2.65
56 | CCOC(=O)N1CCC(N2Cc3cccc(C(=O)Nc4c(C)cccc4CC)c3C2=O)CC1 | -77.1
57 | NC(=O)c1ccc(NC(=O)Cc2ccc(S(=O)(=O)N3CCCCC3)cc2)cc1 | 1.92
58 | COC(=O)c1c(NC(=O)c2ccco2)sc2c1CC(C)(C)NC2(C)C | -21.2
59 | CN(C(=O)COC(=O)c1ccc2c(=O)n3c(nc2c1)CCC3)C1CCS(=O)(=O)C1 (stereo not drawn) | 10.5
60 | CC(C)Nc1ccc(-n2nc3ccccc3[n+]2[O-])cc1 | 6.09
61 | O=C(CSc1nnc(CNC(=O)c2c(F)cccc2Cl)o1)Nc1ccccc1 | -3.82
62 | O=C(COC(=O)c1cncc(Br)c1)NC1CCCCCC1 | -14.6
63 | Cc1ccc(-c2c(C(=O)O)c(C(=O)O)c3n2CSC3)cc1 | 5.86
64 | COc1ccc(NC(=O)CCCn2c(=O)c3sccc3n(Cc3ccc(C)cc3C)c2=O)cc1 | -24.2
65 | COC(=O)c1ccc(NC(=O)CSc2nnc(COc3c(C)cccc3C)o2)cc1 | 4.5
66 | Cc1ccc(S(=O)(=O)N2CCOC2CNC(=O)C(=O)NCc2ccc(Cl)cc2)cc1 (stereo not drawn) | 13.1

Row | Structure (SMILES) | hERG current change (%, negative = inhibition) at 10uM [%]
67 | CCOC(=O)COc1ccc(S(=O)(=O)N2CCN(c3ccccc3)CC2)cc1 | -39
68 | Cc1ccc(SCCC(=O)Nc2cc(C)on2)cc1 | 7.42
69 | Cc1cc(C)n2nc(SCC(=O)N3CCC4(CC3)OCCO4)nc2n1 | 11
70 | C/C(Cc1ccccc1)=N\NC(=O)c1ccc(F)cc1 | 22.8
71 | COc1ccc(OC)c(NC(=O)CSc2nnc(-c3ccco3)n2-c2ccc(C(=O)O)cc2)c1 | -3.68
72 | CC1(c2ccccc2Cl)NC(=O)N(CC(=O)Nc2cccnc2Cl)C1=O (stereo not drawn) | -1.42
73 | COCCCNC(=O)C1CC(=O)OC1c1ccc(OC)c(OC)c1 (stereo not drawn) | 5.42
74 | N#Cc1c(C(F)(F)F)cc(Cc2ccccc2)nc1SCC(=O)NCC(=O)O | -0.926
75 | COc1ccccc1-n1c(O)c(/C=N/N2CCCCC2)c(=O)n(-c2ccccc2OC)c1=S | 8.1
76 | O=C1NCC(O)=C1C=NCCO | -10.4
77 | c1ccc(CN(Cc2cccs2)C(c2cccs2)c2nnnn2C2CCCC2)cc1 (stereo not drawn) | -5.48
78 | CCN(CC)c1ccc(CNCCc2ccccc2F)cc1.Cl | -5.46
79 | CCOc1cc(C2NC(=S)NC(C)=C2C(=O)Nc2ccccc2)ccc1O (stereo not drawn) | 23.2
80 | Cc1cc(C)c(C#N)c(=N)o1 | 6.34
81 | O=C(Nc1nc(-c2cccs2)c(C(=O)C(F)(F)F)s1)c1ccco1 | 22.7
82 | Cc1cc(OCC(=O)NCCCn2ccnc2)c2c(C)c(C)c(=O)oc2c1 | -63.6
83 | NC(=O)COc1ccccc1/C=C1/SC(=O)N(CC(=O)N2CCc3ccccc3C2)C1=O | -23.7
84 | CCN(CC)c1ccc(NC(=O)c2ccccc2F)cc1S(=O)(=O)Nc1ccccc1OC | 4.31
85 | Cn1c(N)c(-c2ccccc2)c2ccc([N+](=O)[O-])cc2c1=O | 15.3
86 | CCOc1ccc(S(=O)(=O)N2CCC(C(=O)NCCc3ccc(S(N)(=O)=O)cc3)CC2)cc1 | 20.4
87 | CCCc1[nH]nc2c1C(C1CC=CCC1)C(C#N)=C(N)O2 (stereo not drawn) | -44.4

Reference: article PMC4336329 (PLoS ONE, 2015)
